Laboratory results: patent US7517874B2 (priority 2007, dated 2009)
Like-named read-outs stand apart in the source and are kept apart here.

Target: human CB2 receptor (hCB2) (Homo sapiens, UniProt P34972)
Assay: cell-based
Format: cell-based
Details: for +/− HCB2: agonist or inverse agonist at hCB2

Sequence of human CB2 receptor (hCB2) (P34972 whole entry): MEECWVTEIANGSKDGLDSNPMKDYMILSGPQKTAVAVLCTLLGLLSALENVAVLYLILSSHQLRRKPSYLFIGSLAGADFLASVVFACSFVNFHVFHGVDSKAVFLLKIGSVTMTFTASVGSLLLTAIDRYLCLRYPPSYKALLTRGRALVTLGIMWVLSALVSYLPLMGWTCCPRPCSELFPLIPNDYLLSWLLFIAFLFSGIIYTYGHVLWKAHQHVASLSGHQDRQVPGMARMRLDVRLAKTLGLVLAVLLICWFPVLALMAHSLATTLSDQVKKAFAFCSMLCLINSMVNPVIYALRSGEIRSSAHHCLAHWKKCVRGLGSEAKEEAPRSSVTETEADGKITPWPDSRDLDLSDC

CNC(=O)[C@@H](NC(=O)c1nc(C2=CCCCC2)n2c1CN(C)CCC2)C(C)(C)C [Compound 396, (S)-3-cyclohexenyl-N-(3,3-dimethyl-1-(methylamino)-1-oxobutan-2-yl)-8-methyl-6,7,8,9-tetrahydro-5H-imidazo[1,5-a][1,4]diazepine-1-carboxamide]
+/− HCB2: +

CC12CCC(C1)C(C)(C)C2NC(=O)c1nc(-c2ccccc2)n2c1CN(C(=O)c1ccccc1)CC2 (stereo not drawn) [Compound 120, 7-benzoyl-3-phenyl-N-(1,3,3-trimethylbicyclo[2.2.1]heptan-2-yl)-5,6,7,8-tetrahydroimidazo[1,5-a]pyrazine-1-carboxamide]
EC50: > 10000 nM

CNC(=O)[C@@H](NC(=O)c1nc(-c2ccccc2)n2c1CN(S(=O)(=O)c1ccccc1F)CC2)C(C)(C)C [Compound 98, (S)-N-(3,3-dimethyl-1-(methylamino)-1-oxobutan-2-yl)-7-(2-fluorophenylsulfonyl)-3-phenyl-5,6,7,8-tetrahydroimidazo[1,5-a]pyrazine-1-carboxamide]
+/− HCB2: −

CCCNC(=O)N1CCn2c(-c3ccccc3)nc(C(=O)N[C@H](C(=O)NC)C(C)(C)C)c2C1 [Compound 193, (S)-N1-(3,3-dimethyl-1-(methylamino)-1-oxobutan-2-yl)-3-phenyl-N7-propyl-5,6-dihydroimidazo[1,5-a]pyrazine-1,7(8H)-dicarboxamide]
EC50: > 10000 nM

CN1CCCn2c(-c3ccc(F)c(F)c3)nc(C(=O)N[C@H](C(=O)N(C)C)C(C)(C)C)c2C1 [Compound 561, (S)-3-(3,4-difluorophenyl)-N-(1-(dimethylamino)-3,3-dimethyl-1-oxobutan-2-yl)-8-methyl-6,7,8,9-tetrahydro-5H-imidazo[1,5-a][1,4]diazepine-1-carboxamide]
+/− HCB2: +

CN1CCCn2c(-c3ccccc3)nc(C(=O)Nc3nc(C(C)(C)C)cs3)c2C1 [Compound 596, N-(4-tert-butylthiazol-2-yl)-8-methyl-3-phenyl-6,7,8,9-tetrahydro-5H-imidazo[1,5-a][1,4]diazepine-1-carboxamide]
+/− HCB2: +

CNC(=O)[C@@H](NC(=O)c1nc(Cc2ccccc2)n2c1CNCC2)C(C)(C)C [Compound 13, (S)-3-benzyl-N-(3,3-dimethyl-1-(methylamino)-1-oxobutan-2-yl)-5,6,7,8-tetrahydroimidazo[1,5-a]pyrazine-1-carboxamide]
+/− HCB2: +

CCS(=O)(=O)N1CCn2c(-c3ccccc3)nc(C(=O)N[C@@H](C)c3ccccc3)c2C1 [Compound 113, (S)-7-(ethylsulfonyl)-3-phenyl-N-(1-phenylethyl)-5,6,7,8-tetrahydroimidazo[1,5-a]pyrazine-1-carboxamide]
EC50: > 10000 nM

CNC(=O)[C@@H](NC(=O)c1nc(-c2ccccc2-c2ccccc2)n2c1CN(C)CCC2)C(C)(C)C [Compound 413, (S)-3-(biphenyl-2-yl)-N-(3,3-dimethyl-1-(methylamino)-1-oxobutan-2-yl)-8-methyl-6,7,8,9-tetrahydro-5H-imidazo[1,5-a][1,4]diazepine-1-carboxamide]
EC50: > 10000 nM

CNC(=O)[C@@H](NC(=O)c1nc(-c2cccc(OC)c2F)n2c1CN(C)CCC2)C(C)(C)C [Compound 346, (S)-N-(3,3-dimethyl-1-(methylamino)-1-oxobutan-2-yl)-3-(2-fluoro-3-methoxyphenyl)-8-methyl-6,7,8,9-tetrahydro-5H-imidazo[1,5-a][1,4]diazepine-1-carboxamide]
EC50: > 10000 nM

CNC(=O)[C@@H](NC(=O)c1nc(CCCN2CCCCC2)n2c1CN(C)CCC2)C(C)(C)C [Compound 501, (S)-N-(3,3-dimethyl-1-(methylamino)-1-oxobutan-2-yl)-8-methyl-3-(3-(piperidin-1-yl)propyl)-6,7,8,9-tetrahydro-5H-imidazo[1,5-a][1,4]diazepine-1-carboxamide]
+/− HCB2: +

Cc1ccc(-c2nc(C(=O)N[C@H](c3nc(C)no3)C(C)(C)C)c3n2CCCN(C)C3)c(F)c1 [Compound 522, (S)-N-(2,2-dimethyl-1-(3-methyl-1,2,4-oxadiazol-5-yl)propyl)-3-(2-fluoro-4-methylphenyl)-8-methyl-6,7,8,9-tetrahydro-5H-imidazo[1,5-a][1,4]diazepine-1-carboxamide]
+/− HCB2: +

CC(C)CN1CCn2c(-c3ccccc3)nc(C(=O)NN3CCCCC3)c2C1 [Compound 155, 7-isobutyl-3-phenyl-N-(piperidin-1-yl)-5,6,7,8-tetrahydroimidazo[1,5-a]pyrazine-1-carboxamide]
EC50: > 10000 nM

CN1CCn2c(-c3ccccc3)nc(C(=O)N[C@@H](CO)C(C)(C)C)c2C1 [Compound 67, (R)-N-(1-hydroxy-3,3-dimethylbutan-2-yl)-7-methyl-3-phenyl-5,6,7,8-tetrahydroimidazo[1,5-a]pyrazine-1-carboxamide]
+/− HCB2: +

O=C(NN1CCCCC1)c1nc(-c2ccccc2)n2c1CN(CCO)CC2 [Compound 156, 7-(2-hydroxyethyl)-3-phenyl-N-(piperidin-1-yl)-5,6,7,8-tetrahydroimidazo[1,5-a]pyrazine-1-carboxamide]
EC50 (groups >100 nM-10 μM and >10 μM, cAMP, CHO-K1 hCB2, read-out: EC50 HCB2): > 10000 nM

CNC(=O)[C@@H](NC(=O)c1nc(-c2ccccc2)n2c1CN(C(=O)OC)CC2)C(C)(C)C [Compound 180, (S)-methyl 1-(3,3-dimethyl-1-(methylamino)-1-oxobutan-2-ylcarbamoyl)-3-phenyl-5,6-dihydroimidazo[1,5-a]pyrazine-7(8H)-carboxylate]
EC50: > 10000 nM

CCCN1CCn2c(-c3ccccc3)nc(C(=O)Nc3ccccc3)c2C1 [Compound 154, N,3-diphenyl-7-propyl-5,6,7,8-tetrahydroimidazo[1,5-a]pyrazine-1-carboxamide]
EC50: > 10000 nM

CNC(=O)[C@@H](NC(=O)c1nc(-c2ccccc2)n2c1CN(CC(C)C)CC2)C(C)(C)C [Compound 148, (S)-N-(3,3-dimethyl-1-(methylamino)-1-oxobutan-2-yl)-7-isobutyl-3-phenyl-5,6,7,8-tetrahydroimidazo[1,5-a]pyrazine-1-carboxamide]
+/− HCB2: −

CNC(=O)[C@@H](NC(=O)c1nc(-c2ccc(C#N)cc2)n2c1CN(C)CC2)C(C)(C)C [Compound 254, (S)-3-(4-cyanophenyl)-N-(3,3-dimethyl-1-(methylamino)-1-oxobutan-2-yl)-7-methyl-5,6,7,8-tetrahydroimidazo[1,5-a]pyrazine-1-carboxamide]
+/− HCB2: +

CNC(=O)[C@@H](NC(=O)c1nc(-c2ccccc2)n2c1CN(C(C)C)CC2)C(C)(C)C [Compound 85, (S)-N-(3,3-dimethyl-1-(methylamino)-1-oxobutan-2-yl)-7-isopropyl-3-phenyl-5,6,7,8-tetrahydroimidazo[1,5-a]pyrazine-1-carboxamide]
EC50: > 10000 nM

Cc1noc([C@@H](NC(=O)c2nc(-c3ccccc3)n3c2CN(C)CC3)C(C)(C)C)n1 [Compound 87, (S)-N-(2,2-dimethyl-1-(3-methyl-1,2,4-oxadiazol-5-yl)propyl)-7-methyl-3-phenyl-5,6,7,8-tetrahydroimidazo[1,5-a]pyrazine-1-carboxamide]
+/− HCB2: +

CNC(=O)[C@@H](NC(=O)c1nc(-c2cccc(F)c2F)n2c1CN(C)CC2)C(C)(C)C [Compound 261, (S)-3-(2,3-difluorophenyl)-N-(3,3-dimethyl-1-(methylamino)-1-oxobutan-2-yl)-7-methyl-5,6,7,8-tetrahydroimidazo[1,5-a]pyrazine-1-carboxamide]
+/− HCB2: +

CC(C)C[C@H](NC(=O)c1nc(-c2cc(F)c(F)cc2F)n2c1CN(C)CCC2)C(N)=O [Compound 572, (S)-N-(1-amino-4-methyl-1-oxopentan-2-yl)-8-methyl-3-(2,4,5-trifluorophenyl)-6,7,8,9-tetrahydro-5H-imidazo[1,5-a][1,4]diazepine-1-carboxamide]
+/− HCB2: +

CNC(=O)[C@@H](NC(=O)c1nc(-c2ccccc2)n2c1CN(C(=O)c1ccccc1)CCC2)C(C)(C)C [Compound 462, (S)-8-benzoyl-N-(3,3-dimethyl-1-(methylamino)-1-oxobutan-2-yl)-3-phenyl-6,7,8,9-tetrahydro-5H-imidazo[1,5-a][1,4]diazepine-1-carboxamide]
+/− HCB2: −

CNC(=O)[C@@H](NC(=O)c1nc(-c2ccccc2)n2c1CN(C)CC2)C(C)C [Compound 206, (S)-7-methyl-N-(3-methyl-1-(methylamino)-1-oxobutan-2-yl)-3-phenyl-5,6,7,8-tetrahydroimidazo[1,5-a]pyrazine-1-carboxamide]
+/− HCB2: +

CNC(=O)[C@@H](NC(=O)c1nc(-c2cc(F)c(F)cc2F)n2c1CN(C)CCC2)C1CCCCC1 [Compound 541, (S)-N-(1-cyclohexyl-2-(methylamino)-2-oxoethyl)-8-methyl-3-(2,4,5-trifluorophenyl)-6,7,8,9-tetrahydro-5H-imidazo[1,5-a][1,4]diazepine-1-carboxamide]
+/− HCB2: +

CNC(=O)[C@@H](NC(=O)c1nc(-c2ccccc2F)n2c1CN(C)CCC2)C(C)(C)C [Compound 353, (S)-N-(3,3-dimethyl-1-(methylamino)-1-oxobutan-2-yl)-3-(2-fluorophenyl)-8-methyl-6,7,8,9-tetrahydro-5H-imidazo[1,5-a][1,4]diazepine-1-carboxamide]
+/− HCB2: +

CNC(=O)[C@@H](NC(=O)c1nc(-c2ccccc2)n2c1CN(C(=O)C(C)C)CC2)C(C)(C)C [Compound 191, (S)-N-(3,3-dimethyl-1-(methylamino)-1-oxobutan-2-yl)-7-isobutyryl-3-phenyl-5,6,7,8-tetrahydroimidazo[1,5-a]pyrazine-1-carboxamide]
+/− HCB2: −

CNC(=O)[C@@H](NC(=O)c1nc(C2CC2)n2c1CN(C)CC2)C(C)(C)C [Compound 269, (S)-3-cyclopropyl-N-(3,3-dimethyl-1-(methylamino)-1-oxobutan-2-yl)-7-methyl-5,6,7,8-tetrahydroimidazo[1,5-a]pyrazine-1-carboxamide]
+/− HCB2: +

CNC(=O)[C@@H](NC(=O)c1nc(-c2ccc(C(=O)N3CCOCC3)cc2)n2c1CN(C)CCC2)C(C)(C)C [Compound 401, (S)-N-(3,3-dimethyl-1-(methylamino)-1-oxobutan-2-yl)-8-methyl-3-(4-(morpholine-4-carbonyl)phenyl)-6,7,8,9-tetrahydro-5H-imidazo[1,5-a][1,4]diazepine-1-carboxamide]
EC50: > 10000 nM
